The structures appear in SMILES notation. Several values for one entry are separate records, joined by “and”; a condition that tells them apart may be missing. Equal entries are not always repeated.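 In this assay, cells in 96-well plates receive the compound at five concentrations for 48 hours. Endpoints are linearly interpolated between the surrounding concentrations. GI50: concentration for 50% inhibition of growth. The concentration for full growth arrest is given as TGI.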 Where only a bound is given, the exact number is not on record here.

For the assay, the system named is NCI-H322M lung. The assay can be described thus: NCI tumour cell line growth inhibition, 48 h.
The compound `COc1cc(OC)cc(-n2c(N)c(-c3nc4ccccc4n3C)c3ccc([N+](=O)[O-])cc3c2=O)c1` yielded a TGI of more than 100 µM.
Same read-out and setting: as for `O=C(/C=C(\O)c1ccccc1)/C(=C/C(=O)c1ccccc1)NN=C(c1ccccc1)c1ccccc1`, the figure is more than 100 µM.
The same measure, in the same setting: in the case of `COC(=O)C1=C(C)N(NC(=O)c2ccccc2)C2(O)CCCC(=O)C12C` (configuration not stated) it was more than 100 µM.
Consider `Oc1c(Cl)cc(Cl)c2cccnc12`, for which the GI50 was 4.52 µM and the TGI is 69.5 µM.
`COc1cc([C@H]2Oc3c(OC)cc(CCCO)cc3[C@@H]2CO)ccc1O` came in with a TGI of more than 100 µM.
On the same count and under the same terms, as for `CC(C)(C)OC(=O)NCC(=O)NC1C/C(=N\O)c2sccc21` (configuration not stated), the figure is more than 100 µM.
Take `CCN(CC)C(=S)SSC(=S)N(CC)CC`: the GI50 was 37.3 µM and 60 µM; the TGI came out at 212 µM.
`Cc1ccc(SC[C@@]2(C(F)F)NC(=O)NC2=O)cc1` yielded a TGI of more than 100 µM.
Same read-out and setting: as for `CSCCCNC(=O)c1csc(-c2csc(CCNC(=O)CNC(=O)CNC(=O)CNC(=O)OC(C)(C)C)n2)n1`, the figure is more than 100 µM; as for `Cc1ccnc(NC(=S)Nc2cccc(Cl)c2)c1`, more than 100 µM; as for `CC(=O)Nc1ccc(C(=O)N2N=C(C)/C(=C/c3cccc([N+](=O)[O-])c3)C2=O)cc1`, more than 100 µM.
`Cc1occ2c1C(=O)CC1C2[C@@H](O)CC2C(C)(C)CCC[C@]12C` (some centres not stated) registered a TGI of more than 100 µM.
On to `Nc1cc2cccc[n+]2c2cccc(Cl)c12`, for which the GI50 was 27.3 µM.
For the compound `CCC[CH2][Sn]([CH2]CCC)([O]C(=O)/C=C/c1ccccc1F)[O]C(=O)/C=C/c1ccccc1F`, the GI50 is 1.98 µM and the TGI amounted to 4.45 µM.
On to `CCOC(=O)/C(C#N)=C(/NNc1ccccc1)c1ccncc1C(=O)O`, for which the TGI is more than 100 µM.
As to `O=C(Nc1ccccc1Cl)c1cccc(NC2=C(Cl)C(=O)N(Cc3ccccc3)C2=O)c1`, the GI50 was 16.9 µM and the TGI was more than 100 µM.
The corresponding values for `N/C(=N\c1nc2ccccc2s1)NC(=NC1CCCCC1)NC1CCCCC1` are 1.57 µM and 3.02 µM.
The corresponding values for `Nc1n[nH]c2ccc([C@@H]3Nc4cc5[nH]ncc5cc4[C@H]4C5CCC(C5)[C@@H]34)cc12` (some centres not stated) are 0.667 µM and more than 100 µM.
For `Cc1c2ccncc2c(C)c2c1c1cc(CO)ccc1n2C`, in that order: 0.551 µM and 3.82 µM.
In the case of `Nc1ccc(-c2nc3ccc(F)cc3s2)cc1`, the TGI was more than 100 µM.
Turning to `Cc1cc(NC(=O)c2cnc(N3CCN(CCOCCOCCOCCOCCC(=O)N[C@H](C(=O)N4C[C@H](O)C[C@H]4C(=O)N[C@@H](C)c4ccc(-c5scnc5C)cc4)C(C)(C)C)CC3)cn2)c2ncccc2c1`, the GI50 was 3.74 µM and the TGI was 19.8 µM.
As to `C[C@@H]1CC[C@@H](C)[C@](C)(CCc2ccoc2)C/C=C\C=C/1C(=O)O`, the TGI was more than 50 µM.
With `CCOC(=O)C1=C(C)N2C(=NC3=C(CCC/C3=C\c3ccc(Cl)cc3)C2c2ccc(Cl)cc2)S1` (configuration not stated), the GI50 was 18.6 µM and the TGI is more than 100 µM.
For the compound `CN(c1ccc(C#N)c(Cl)c1)C1CCC(NC(=O)c2ccc(N3CCN(C4CN(c5ccc6c(c5)C(=O)N(C5CCC(=O)NC5=O)C6=O)C4)CC3)cc2)CC1` (configuration not stated), the GI50 was more than 100 µM and the TGI was more than 100 µM.
Take `CC(=O)[CH-]C(=O)Nc1ccccc1.CC(=O)[CH-]C(=O)Nc1ccccc1.CC[O-].CC[O-].[Ti+4]`: the GI50 was more than 100 µM and the TGI was more than 100 µM.
`CC(NNC(=O)c1ccncc1)c1ccc(Cl)c(Cl)c1` (configuration not stated) returned a TGI of more than 100 µM.
Regarding `NS(=O)(=O)c1cccc(-c2ccc3c(NC(=O)C4CC4)n[nH]c3c2)c1`, the GI50 was more than 25 µM and the TGI was more than 25 µM.
In the case of `CCN(CC)C(=O)COc1cc2c(O)c3c(O)c(C)c4c(c13)C(=O)C(C)(OC=CC(OC)C(C)C(OC(C)=O)C(C)C(O)C(C)C(O)C(C)C=CC=C(C)C(=O)N2)O4` (configuration not stated), the TGI was more than 100 µM.
For the compound `Cc1cccc2c(Nc3ccc(NS(C)(=O)=O)cc3)c3ccc([N+](=O)[O-])cc3nc12`, the GI50 was 2.85 µM and the TGI stood at 11.4 µM.
For the compound `O=C(N/C(=C\c1cc(Cl)ccc1Cl)c1nc2ccc(Cl)cc2[nH]1)c1ccccc1`, the TGI was 53.8 µM.
Consider `COc1ccc(-c2onc(-c3c(C)cc(C)cc3C)c2C2=NCCN2)cc1`, for which the TGI is more than 100 µM.
Same read-out and setting: as for `OC(CCN1CCN(CCOC(c2ccccc2)c2ccccc2)CC1)c1ccc(Br)cc1` (configuration not stated), the figure is 27.5 µM; as for `N#CC12C(=O)N3C(=NC(c4ccccc4)NC3c3ccccc3)C1(C#N)C(c1ccccc1)NC1=C2CCCC1` (configuration not stated), more than 100 µM; as for `CCOP(=O)(OCC)C1(O)CC(n2cc(C)c(=O)[nH]c2=O)OC1CO` (configuration not stated), more than 100 µM.
`COc1ccc2c(c1)C(=O)c1c-2c(N2CCNCC2)nc2ccccc12`: the GI50 is 11.2 µM and the TGI was found to be 26.6 µM.
In turn, `O=C1c2ccccc2-c2nc(-c3ccccc3)cc3c2c1nc1ccccc13` showed a TGI of 60.4 µM.
Same read-out and setting: in the case of `CCCCc1ccc(-n2sc3ncccc3c2=O)cc1` it was 96.2 µM.
As for `COc1ccc(Oc2ccccc2NC(=O)CNC(=O)c2cccc3ccccc23)cc1`, the GI50 is 1.24 µM and the TGI was more than 25 µM.
`O=C(O)c1cc(Cl)cc2c1NC1(N2)C(=O)Nc2ccccc21` (configuration not stated) came in with a TGI of more than 100 µM.
As for `Nc1ncccc1-c1nc2ccc(-c3ccccc3)nc2n1-c1ccc(C2(N)CCC2)cc1`, the GI50 is 1.87 µM and the TGI amounted to 11.2 µM.
`COC(=O)/C=C/c1cc(OC)c2oc(-c3ccc(OC)c(OC)c3)c(C(=O)OC)c2c1` showed a TGI of more than 100 µM.
Consider `Nc1ccc(C(=O)N/C(=C\c2cccc([N+](=O)[O-])c2)c2nc3ccc(Cl)cc3[nH]2)cc1`, for which the TGI is more than 100 µM.
On the same count and under the same terms, in the case of `Cc1ccc(N=C2SC(c3ccc(C)cc3)(c3ccc(C)cc3)c3ccccc32)cc1` it was more than 100 µM.
Consider `C[C@@H]1COCCN1c1cc(-c2ccnn2C)c2ccnc(-c3ccn[nH]3)c2n1`, for which the GI50 is 0.038 µM and 0.0525 µM; the TGI is more than 26.3 µM.
Consider `CN(CCc1ccc(Cl)c(Cl)c1)CCN(C)CCN1CCCC1`, for which the TGI worked out at 23.4 µM.
As to `O=c1cccc(C#CC#CCCCO)o1`, the GI50 was 1.58 µM and the TGI came out at 10 µM.
Consider `Cc1ccc(OCC2OC(n3cnc4c(Cl)ncnc43)CC2Oc2ccc(C)cc2)cc1` (configuration not stated), for which the GI50 is 2.56 µM and 16 µM; the TGI is 6.4 µM and 33.3 µM.
With `Cc1ccc(NC(=O)CC2SC(N)=NC2=O)cc1C` (configuration not stated), the TGI was more than 100 µM.
Turning to `O=C1CCC2(O)C3Cc4ccc(Oc5nnnn5-c5ccccc5)c5c4C2(CCN3CC2CC2)C1O5` (configuration not stated), the TGI is more than 100 µM.
The same measure, in the same setting: in the case of `O=C(O)[C@@H](NS(=O)(=O)c1ccc2ccccc2c1)c1ccccc1` it was more than 100 µM.
On the same count and under the same terms, in the case of `O=C(CCc1nc(=S)[nH][nH]1)Nc1cccc(C(F)(F)F)c1` it was more than 100 µM; in that of `CC1=C[C@@H](C)C[C@]2(C)CC[C@H](O2)[C@]23CC[C@](C)(C[C@H](O2)[C@@H]2O[C@@](C)(CC2=O)[C@@H](O)[C@H]2CC[C@@]4(CCC[C@@H](O4)[C@H](C)C(=O)O[C@H]4C[C@H]([C@]5(O)OCC[C@H](C)[C@@H]5O)O[C@H]4C=C1)O2)O3`, more than 10 µM; in that of `O=c1[nH]cnc2sc(=S)c3c(c12)CCC3`, more than 100 µM.
The same measure, in the same setting: as for `Cc1nn(C)c2nc3ccc(Cl)cc3c(-c3ccccc3)c12`, the figure is more than 100 µM; as for `CSc1ncc2c(n1)-c1ccccc1OC2NC(C)(C)C` (configuration not stated), more than 100 µM; as for `COc1cc2c(c(OC)c1OC)-c1c(cc3c(c1OC)OCO3)CC(C)C(C)(O)C2OC(=O)c1ccccc1` (configuration not stated), more than 100 µM.
`CC(=O)O.CC(=O)O.CC(=O)O.CC(=O)O.[Rh].[Rh]`: the GI50 is more than 100 µM and the TGI was more than 100 µM.
Take `Brc1cccc(-c2cc(-c3ccc4nccnc4c3)[nH]n2)c1`: the GI50 is 1.42 µM and the TGI was more than 250 µM.
Regarding `O=c1c(O)cccn1CCCN(CCCn1cccc(O)c1=O)CCn1cccc(O)c1=O`, the GI50 was 2.29 µM and the TGI was more than 100 µM.
Take `CN1CCc2c1nc(-c1cccnc1)c1c2N(C)CC1`: the TGI is more than 100 µM.
Take `CC/C=C\C/C=C/C=C1/C(=O)C=C[C@@H]1C/C=C\CCCC(=O)OC`: the GI50 is 3.27 µM and the TGI stood at 12.6 µM.
Regarding `Cc1cc(C)nc(NS(=O)(=O)c2ccc(NC(=O)c3cccn4c(=O)c5ccccc5nc34)cc2)n1`, the TGI is more than 100 µM.
The same measure, in the same setting: in the case of `COc1ccc2c(c1)CC1Cc3ccccc3CCN1C2` (configuration not stated) it was more than 100 µM.
As for `CN1CCN(c2cc3nc4ccccc4n(-c4ccc(Cl)cc4)c-3cc2=N)CC1`, the GI50 is 19.7 µM and the TGI was determined as 52.5 µM.
The corresponding values for `Cc1oc2c(c1C(=O)N1CC[C@@H](N)C1)C(=O)c1c(c(O)c3ccccc3c1O)C2=O` are 1.86 µM and 5.27 µM.
The corresponding values for `COc1cccc(C2C(C#N)=C(N)Oc3c2ccc2ccccc32)c1` (configuration not stated) are 0.0508 µM and 20.3 µM.
As for `N#Cc1c(Nc2nc3ccccc3s2)c2ccccc2n2c1nc1ccccc12`, the TGI was more than 100 µM.
On the same count and under the same terms, in the case of `CC(=O)NNc1nc(C)c(C(=O)/C=C/c2ccc(/C=C/C(=O)c3sc(NNC(C)=O)nc3C)cc2)s1` it was more than 100 µM; in that of `COc1ccc(/C(=N/Nc2nc3ccccc3[nH]2)C(=O)O)cc1`, more than 100 µM.
Same read-out and setting: as for `CC[C@H]1C=CCC[C@@]2(C[C@@H]3CC[C@@H]4[C@H](C(=O)OCCCCCCCCCCCCCCCC(=O)N(CCCN)CCCCN)[C@]5(CCC[C@@H](C)O5)NC(=[N+]34)N2)O1`, the figure is 1.82 µM.
The same measure, in the same setting: as for `O=c1[nH]c2cc3cccnc3c(Cl)c2nc1CBr`, the figure is 51.5 µM.
In the case of `O=c1c(-c2ccccc2)coc2cc(OC/C(=N/O)c3ccc(F)cc3)ccc12`, the GI50 is 18.2 µM and the TGI stood at 41 µM.
For the compound `CC1(C)CC2=C(Sc3ccccc3N2)C(=O)C1C(=O)C(=O)Nc1cc(Cl)ccc1Cl` (configuration not stated), the TGI was more than 100 µM.
`C=CCC1(CC)C(=O)NC(=O)NC1=O` came in with a TGI of more than 100 µM.
In the case of `CN1Cc2c(nc(-c3ccc(Br)cc3)c[n+]2[O-])N(C)C1`, the TGI is more than 100 µM.
In turn, `CCN1CCCC(Nc2cc(C)nc(/N=C(/N)Nc3ccc(Cl)c(Cl)c3)n2)C1` (configuration not stated) came in with a TGI of 4.1 µM.
As to `C=C1C(=O)O[C@H]2[C@H]1CC/C(CNC(=O)/C=C/c1ccccc1)=C\CC[C@@]1(C)O[C@@H]21`, the GI50 was 9.87 µM and the TGI is 21.5 µM.
`CC(=O)Nc1ccc(C(=O)NN2C(=O)C(Cl)C2c2ccc(O)cc2)cc1` (configuration not stated) returned a TGI of more than 100 µM.
Regarding `CN(/N=N/c1nc[nH]c1C(N)=O)C1CCCCC1`, the TGI is more than 100 µM.

The values are drawn from PubChem BioAssay (NCI).
